This list was built around the results that the source calls inconclusive (neither active nor inactive); the mix of calls is not that of the screen. For some assays here: A potency beside an inconclusive call is a rough fit, not a confirmed value. The source made the active and inactive calls. Unless noted, the call rests on the fitted dose curve; in most records, active means well fitted curve in the direction sought with a large enough effect in the repeat runs; inconclusive means weak or mixed curves; inactive means no such curve, though single readings can be large; an effect the other way counts as inactive or inconclusive.
Columns and labels:
[1] = biological target: Peroxisome proliferator-activated receptor gamma (Homo sapiens) (UniProt P37231); assay: qHTS assay to identify small molecule antagonists of the peroxisome proliferator-activated receptor gamma (PPARg) signaling pathway (AID 743191; calls by dose curve; further: on the % scale 0 is the no-effect control and ±100 the full control effect; nearly all actives have a fitted effect of over 30% in size); details: HEK293H PPARg-UAS-bla, beta-lactamase ratio, antagonist, 17 h
Sequence of UniProt P37231 (P37231 whole entry, looked up): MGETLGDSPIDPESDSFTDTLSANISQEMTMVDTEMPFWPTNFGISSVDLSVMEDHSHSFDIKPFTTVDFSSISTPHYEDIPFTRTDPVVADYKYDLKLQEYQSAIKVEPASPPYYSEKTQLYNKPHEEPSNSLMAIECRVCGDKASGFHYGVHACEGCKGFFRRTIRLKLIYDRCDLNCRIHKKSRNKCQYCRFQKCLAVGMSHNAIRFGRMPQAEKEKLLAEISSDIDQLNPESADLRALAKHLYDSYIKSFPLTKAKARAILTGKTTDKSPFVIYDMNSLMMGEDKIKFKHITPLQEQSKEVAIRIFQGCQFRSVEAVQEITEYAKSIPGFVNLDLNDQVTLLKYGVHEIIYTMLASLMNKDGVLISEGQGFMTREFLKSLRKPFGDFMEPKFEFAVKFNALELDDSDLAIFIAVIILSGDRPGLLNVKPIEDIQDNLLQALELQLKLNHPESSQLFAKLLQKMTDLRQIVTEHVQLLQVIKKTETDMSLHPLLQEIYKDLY
Summary of the method: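 GeneBLAzer PPARg UAS-bla HEK293H cells, 5 h post-plating, exposed to compounds 17 h at 37C. LiveBLAzer B/G FRET substrate added for 1 h at room temperature; beta-lactamase reporter read by fluorescence intensity.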

[2] = qHTS assay for small molecule agonists of the antioxidant response element (ARE) signaling pathway (AID 743202; active means well fitted activation curve with a large enough effect in the signal ratio in the repeat runs, not every such curve was filed as active; inconclusive means weak or mixed curves, or effect the other way; inactive means no such curve, though single readings can be large or run the other way; the % refers to the signal ratio; further: potency means the concentration at half of the fitted maximal effect; on activation: on the % scale 0 is the no-effect control and ±100 the full control effect); details: HepG2 ARE-bla reporter, beta-lactamase FRET, 16 h
Summary of the method: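 ARE-bla HepG2 cells (beta-lactamase reporter under the antioxidant response element), plated 5 hours, then exposed to compounds 16 hours at 37 C. LiveBLAzer B/G FRET substrate added for 2 hours at room temperature; fluorescence intensity read.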

[3] = qHTS assay for small molecule agonists of the antioxidant response element (ARE) signaling pathway - cell viability counter screen (AID 743203; calls by dose curve; further: nearly all actives have a fitted effect of over 55% in size; further: potency means the concentration at half of the fitted maximal effect)
Summary of the method: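 Cells (ARE-bla HepG2, 2,000/well) receive DMSO-dissolved compounds after a 5 hrs rest. Plates incubate 16 hrs at 37C/5% CO2. CellTiter-Glo luminescence is then recorded after 30 min at room temperature.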

[4] = qHTS assay to identify small molecule agonists of the peroxisome proliferator-activated receptor delta (PPARd) signaling pathway - cell viability counter screen (AID 743211); details: PPARd-bla HEK293H viability, CellTiter-Glo luminescence, 17 h; activity change, negative = cytotoxicity: at 62.6 µM (top of the series) unless noted; further: nearly all actives have a fitted effect of over 55% in size; further: potency means the concentration at half of the fitted maximal effect
Summary of the method: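 Following 5 h plating at 37 C and 5% CO2, PPARd UAS-bla HEK293H cells took up test compounds for 17 h. Viability was quantified by luminescence 30 min after CellTiter-Glo addition at room temperature.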

[5] = biological target: Peroxisome proliferator-activated receptor delta (Homo sapiens) (UniProt Q03181); assay: qHTS assay to identify small molecule agonists of the peroxisome proliferator-activated receptor delta (PPARd) signaling pathway (AID 743212; calls by dose curve; further: potency means the concentration at half of the fitted maximal effect); details: HEK293H PPARd-UAS-bla, beta-lactamase FRET ratio, 17 h; activation: at 62.6 µM (top of the series) unless noted
Sequence of UniProt Q03181 (Q03181 whole entry, looked up): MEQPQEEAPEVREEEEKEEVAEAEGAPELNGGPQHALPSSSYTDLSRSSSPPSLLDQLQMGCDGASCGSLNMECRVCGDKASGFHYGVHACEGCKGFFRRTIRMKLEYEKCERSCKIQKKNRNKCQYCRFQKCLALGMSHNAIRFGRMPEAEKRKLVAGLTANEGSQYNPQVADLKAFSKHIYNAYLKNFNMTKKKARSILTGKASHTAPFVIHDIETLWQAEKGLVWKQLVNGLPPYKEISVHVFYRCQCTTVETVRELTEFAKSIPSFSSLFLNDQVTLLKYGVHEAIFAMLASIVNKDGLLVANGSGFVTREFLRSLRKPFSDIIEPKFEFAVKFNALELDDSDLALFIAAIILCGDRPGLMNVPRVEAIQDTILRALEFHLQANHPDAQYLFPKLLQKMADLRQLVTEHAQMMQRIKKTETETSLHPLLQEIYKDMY
Summary of the method: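 GeneBLAzer UAS-bla HEK293H cells carrying a PPARδ construct were exposed to compounds at 37 °C. Beta-lactamase activity was read by FRET fluorescence after 2 h at room temperature with LiveBLAzer B/G substrate.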

[6] = qHTS assay to identify small molecule agonists of the farnesoid-X-receptor (FXR) signaling pathway - cell viability counter screen (AID 743218); details: FXR-bla HEK293T viability, CellTiter-Glo luminescence, 16 h; viability change, negative = cytotoxic: at 62.6 µM (top of the series) unless noted; further: nearly all actives have a fitted effect of over 45% in size; further: potency means the concentration at half of the fitted maximal effect
Summary of the method: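 In GeneBLAzer FXR-UAS-bla HEK 293T cells, compounds act for 16 h at 37 C. Cell viability is then scored in the reporter wells by CellTiter-Glo, 30 min at RT, luminescence.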

[7] = qHTS assay to identify small molecule antagonists of the peroxisome proliferator-activated receptor gamma (PPARg) signaling pathway - cell viability counter screen (AID 743194); details: PPARg-bla HEK293H viability, CellTiter-Glo luminescence, 17 h; Potency: co-treated with 50 nM rosiglitazone unless noted; activity change, negative = cytotoxicity: at 62.6 µM (top of the series), co-treated with 50 nM rosiglitazone unless noted; further: nearly all actives have a fitted effect of over 55% in size; further: potency means the concentration at half of the fitted maximal effect
Summary of the method: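 Cytotoxicity counter screen in PPARg-bla HEK293H cells, same wells as reporter assay. Compounds plus 50 nM rosiglitazone (final) for 17 h at 37 C, then viability read by CellTiter-Glo luminescence.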

[8] = qHTS assay for small molecule activators of the heat shock response signaling pathway - cell viability counter screen (AID 743209); details: HSE-bla HeLa viability, CellTiter-Glo luminescence, 5 h; activity change, negative = cytotoxicity: at 62.6 µM (top of the series) unless noted; further: nearly all actives have a fitted effect of over 50% in size; further: potency means the concentration at half of the fitted maximal effect
Summary of the method: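 Quantitative HTS format, Tox21 10K library. HeLa cells carrying an HSE-driven beta-lactamase reporter were treated 5 h at 37 C, then assessed for viability by CellTiter-Glo luminescence.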

[9] = qHTS assay for small molecule activators of the heat shock response signaling pathway (AID 743210; active means well fitted activation curve with a large enough effect in the signal ratio in the repeat runs, with a control signal flat, not every such curve was filed as active; inconclusive means weak or mixed curves; the % refers to the signal ratio; further: potency means the concentration at half of the fitted maximal effect); details: HeLa HSE-bla reporter, beta-lactamase ratio, 5 h; activation: at 62.6 µM (top of the series)
Summary of the method: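 HSE-bla HeLa cells (beta-lactamase reporter under heat shock response elements), plated overnight, then exposed to compounds 5 h at 37 C; LiveBLAzer B/G FRET substrate added, 2.5 h at room temperature, fluorescence intensity read.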

[10] = qHTS assay to identify small molecule antagonists of the peroxisome proliferator-activated receptor delta (PPARd) signaling pathway - cell viability counter screen (AID 743213); details: PPARd-bla HEK293H viability, CellTiter-Glo luminescence, 17 h; viability change, negative = cytotoxic: at 62 µM (top of the series) unless noted; further: potency means the concentration at half of the fitted maximal effect; nearly all actives have a fitted effect of over 50% in size
Summary of the method: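 PPARd-bla HEK293H cells (3000/well) got compound plus 300 nM L165041 agonist for 17 h at 37 C. Viability in the same wells came from CellTiter-Glo luminescence after 30 min at room temperature.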

[11] = biological target: Peroxisome proliferator-activated receptor delta (Homo sapiens) (UniProt Q03181); assay: qHTS assay to identify small molecule antagonists of the peroxisome proliferator-activated receptor delta (PPARd) signaling pathway (AID 743215; active means well fitted inhibition curve with a large enough effect in the signal ratio in the repeat runs, not every such curve was filed as active; inconclusive means weak or mixed curves, or effect the other way; inactive means no such curve, though single readings can be large or run the other way; the % refers to the signal ratio;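 further: cells stimulated with agonist L165041 at 300 nM final during compound exposure; on the % scale 0 is the no-effect control and ±100 the full control effect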); details: HEK293H PPARd-UAS-bla, beta-lactamase FRET ratio, antagonist, 17 h; ratio activity, negative = inhibition: at 62 µM (top of the series) unless noted
Summary of the method: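 Antagonist-mode beta-lactamase reporter screen: HEK293H cells with UAS-bla under PPARd control, stimulated by 300 nM L165041 (final) alongside test compound for 17 h at 37 C, then FRET fluorescence after 2 h substrate incubation.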

[12] = biological target: Bile acid receptor (Homo sapiens) (UniProt Q96RI1); assay: qHTS assay to identify small molecule antagonists of the farnesoid-X-receptor (FXR) signaling pathway (AID 743217; active means well fitted inhibition curve with a large enough effect in the signal ratio in the repeat runs, not every such curve was filed as active; inconclusive means weak or mixed curves, or effect the other way; inactive means no such curve, though single readings can be large or run the other way; the % refers to the signal ratio; further: potency means the concentration at half of the fitted maximal effect); details: HEK293T FXR-UAS-bla, beta-lactamase ratio, CDCA-stimulated, 16 h; activity change, negative = inhibition: at 62.6 µM (top of the series) unless noted
Sequence of UniProt Q96RI1 (Q96RI1 whole entry, looked up): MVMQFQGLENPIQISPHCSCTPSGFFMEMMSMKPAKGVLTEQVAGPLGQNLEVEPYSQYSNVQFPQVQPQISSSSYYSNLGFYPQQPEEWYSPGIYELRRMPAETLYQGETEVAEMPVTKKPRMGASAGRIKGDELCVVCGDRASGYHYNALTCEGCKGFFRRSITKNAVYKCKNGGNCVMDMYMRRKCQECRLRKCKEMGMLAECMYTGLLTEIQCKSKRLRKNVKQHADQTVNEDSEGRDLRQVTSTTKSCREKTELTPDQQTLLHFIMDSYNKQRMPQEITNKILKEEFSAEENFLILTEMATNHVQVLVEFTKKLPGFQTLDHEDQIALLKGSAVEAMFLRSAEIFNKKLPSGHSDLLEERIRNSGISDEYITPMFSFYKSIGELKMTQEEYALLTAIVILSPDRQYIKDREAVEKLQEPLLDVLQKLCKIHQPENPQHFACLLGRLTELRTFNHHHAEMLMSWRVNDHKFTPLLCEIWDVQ
Summary of the method: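 Beta-lactamase reporter under UAS control in HEK 293T cells; compound exposure 16 h at 37 °C in the presence of chenodeoxycholic acid (50 uM final); signal from B/G FRET substrate after 2 h at room temperature.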

[13] = biological target: Bile acid receptor (Homo sapiens) (UniProt Q96RI1); assay: qHTS assay to identify small molecule agonists of the farnesoid-X-receptor (FXR) signaling pathway (AID 743220; active means well fitted activation curve with a large enough effect in the signal ratio in the repeat runs, not every such curve was filed as active; inconclusive means weak or mixed curves, or effect the other way; the % refers to the signal ratio; further: on the % scale 0 is the no-effect control and ±100 the full control effect); details: HEK293T FXR-UAS-bla, beta-lactamase FRET ratio, 16 h; activation: at 62.6 µM (top of the series) unless noted
Summary of the method: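 Beta-lactamase reporter under UAS control in GeneBLAzer FXR HEK 293T cells (5000/well) measured with LiveBLAzer FRET substrate after 2 h at room temperature. Compound exposure lasted 16 h at 37C.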

[14] = qHTS assay to identify small molecule antagonists of the farnesoid-X-receptor (FXR) signaling pathway - cell viability counter screen (AID 743221; active means well fitted cell-killing curve with a large enough effect in the repeat runs, not every such curve was filed as active; inconclusive means weak or mixed curves, or effect the other way; inactive means no such curve, though single readings can be large or run the other way; further: potency means the concentration at half of the fitted maximal effect; nearly all actives have a fitted effect of over 50% in size); details: FXR-bla HEK293T viability, CellTiter-Glo luminescence, 16 h; activity change, negative = cytotoxicity: at 62.6 µM (top of the series) unless noted
Summary of the method: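 Compound effects on cell number were measured as CellTiter-Glo luminescence in HEK 293T cells expressing FXR-UAS-bla, after 16 h at 37 C with 50 uM CDCA (final).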

[15] = biological target: Vitamin D3 receptor (Homo sapiens) (UniProt P11473); assay: qHTS assay to identify small molecule antagonists of the vitamin D receptor (VDR) signaling pathway (AID 743223; active means well fitted inhibition curve with a large enough effect in the signal ratio in the repeat runs, not every such curve was filed as active; inconclusive means weak or mixed curves, or effect the other way; inactive means no such curve, though single readings can be large or run the other way; the % refers to the signal ratio; further: potency means the concentration at half of the fitted maximal effect); details: VDR-UAS-bla HEK293T, beta-lactamase FRET ratio, 16 h; activity change, negative = inhibition: at 61 µM (top of the series) unless noted
Sequence of UniProt P11473 (P11473 whole entry, looked up): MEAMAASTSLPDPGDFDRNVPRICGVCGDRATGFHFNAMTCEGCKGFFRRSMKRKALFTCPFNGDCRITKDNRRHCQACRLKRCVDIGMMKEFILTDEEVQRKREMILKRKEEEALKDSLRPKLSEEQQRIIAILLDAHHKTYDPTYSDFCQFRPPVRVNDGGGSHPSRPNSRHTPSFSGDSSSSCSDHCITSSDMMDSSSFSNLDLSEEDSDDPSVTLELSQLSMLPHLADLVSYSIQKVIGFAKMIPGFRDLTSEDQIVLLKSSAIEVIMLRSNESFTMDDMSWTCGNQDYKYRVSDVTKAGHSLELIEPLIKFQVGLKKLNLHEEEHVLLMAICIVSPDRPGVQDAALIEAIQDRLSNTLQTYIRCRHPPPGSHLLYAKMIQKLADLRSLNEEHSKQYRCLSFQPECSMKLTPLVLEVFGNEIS
Summary of the method: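 Beta-lactamase activity in VDR-bla cells is measured by FRET substrate fluorescence (2 h, room temperature) after cells spend 16 h at 37C with test compound and 3 nM final 1alpha,25-dihydroxyvitamin D3.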

[16] = qHTS assay to identify small molecule antagonists of the vitamin D receptor (VDR) signaling pathway - cell viability counter screen (AID 743225); details: VDR-bla HEK293T viability, CellTiter-Glo luminescence, 16 h; viability change, negative = cytotoxic: at 61 µM (top of the series) unless noted; further: potency means the concentration at half of the fitted maximal effect; nearly all actives have a fitted effect of over 50% in size
Summary of the method: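 In this counter screen, VDR-bla HEK 293T cells receive test compound plus 3 nM final calcitriol for 16 h at 37C. Room-temperature steps of 2 h with the beta-lactamase substrate, then 30 min with CellTiter-Glo, precede the luminescence read.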

[17] = qHTS assay to identify small molecule agonists of the endoplasmic reticulum stress response signaling pathway (AID 1159516; active means well fitted activation curve with a large enough effect in the signal ratio in the repeat runs, not every such curve was filed as active; inconclusive means weak or mixed curves, or effect the other way; the % refers to the signal ratio; further: on the % scale 0 is the no-effect control and ±100 the full control effect); details: ESRE-bla HeLa, ER stress beta-lactamase reporter, 5 h; activation: at 61 µM (top of the series) unless noted
Summary of the method: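 ER stress element reporter (bla) in HeLa. 1,500 cells/well, overnight attachment; 5 hr compound; 2 hr RT substrate; dual-emission fluorescence.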

[18] = qHTS assay to identify small molecule agonists of the vitamin D receptor (VDR) signaling pathway - cell viability counter screen (AID 743224)
Summary of the method: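 VDR-bla cell line, quantitative HTS format; 16 h compound incubation (37C, 5% CO2); ATP-based CellTiter-Glo luminescence measured in the reporter assay wells.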

[19] = ratio activity, negative = inhibition: at 62.6 µM (top of the series) unless noted
[20] = activation: at 73.3 µM (top of the series) unless noted
Tags describe the fitted curve by direction and shape or compound fluorescence and quenching.

CCNc1nc(NC(C)C)nc(SC)n1
inactive: ratio activity, negative = inhibition ([1]; at 62.6 µM (top of the series)) -6.88% | activation ([2]; at 73.3 µM (top of the series)) -3.24% | Potency [3] | Potency [4] | Potency [6]
inconclusive: ratio activity, negative = inhibition [1, 19] -42.1% [at 81.1 µM] | activation [2, 20] 19.2% [at 94.8 µM] | Potency [5] 54.9 µM [rising, partial curve, poor fit]

C[C@]12CC[C@H]3[C@@H](CCC4=CC(=O)CC[C@@H]43)[C@@H]1CC[C@@H]2OC(=O)CCc1ccco1
active: Potency [7] 29.8 µM [setting not given] | Potency [8] 13.3 µM | Potency [4] 26.6 µM | Potency [10] 29.8 µM
inconclusive: ratio activity, negative = inhibition [1, 19] -5.07% | Potency [2, 20] 13.3 µM [falling, partial curve, poor fit] | Potency [3] 33.5 µM [cytotoxic, single point] | Potency [9] 13.3 µM [falling, full curve] | activation [5] 21.7% | ratio activity, negative = inhibition [11] -41.2% | Potency [12] 33.5 µM [rising, single point] | activation [13] 8.77% | Potency [14] 33.5 µM [falling, single point] | Potency [15] 26.8 µM | Potency [16] 26.8 µM [cytotoxic, single point]

O=NN1CCCC1
inconclusive: ratio activity, negative = inhibition [1, 19] 9.03% [at 81.1 µM] | Potency [10] 1.15 µM [cytotoxic, single point] | Potency [6] 0.0257 µM [rising, full curve, poor fit] | viability change, negative = cytotoxic [6] -34.1% [cytotoxic]
inactive: ratio activity, negative = inhibition ([1]; at 62.6 µM (top of the series)) 2.92% | Potency [3] | Potency [8]

Nc1nc(N)nc(N)n1
inactive: Potency [13] | Potency [17]

CCCOC(=O)c1ccccc1C(=O)OCCC
inactive: Potency [12] | Potency [17]
inconclusive: Potency [18] 21.9 µM [cytotoxic, single point]

CCOC(=O)CP(=O)(OCC)OCC
inconclusive: ratio activity, negative = inhibition [1, 19] 18%

CCCC(=O)Cl
inconclusive: ratio activity, negative = inhibition [1, 19] 7.63% | activation [2, 20] 9.41%
inactive: Potency [7]

Cc1ncc(C[n+]2csc(CCO)c2C)c(N)n1
inactive: Potency [6] | Potency [17]
